# The other results are listed elsewhere or left out. The main result of the screen is listed elsewhere. These columns were measured beside it and carry no call. The list favours compounds with an active or inconclusive main result. Potencies come from curve fits of mixed quality, noted in brackets.
# Target: Nicotinamide N-methyltransferase (Homo sapiens) (UniProt P40261)
# Assay: Confirmatory Screen for Target Class Profiling of Small Molecule Inhibitors of Methyltransferases (AID 1745852);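 note: inhibitor potency for blocking SAH production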
# Settings: MTase-Glo luminescence, SAH detection, recombinant enzyme; measured here: NNMT inhibition potency
# Tags give direction and shape of the fitted curve.
# Chain of UniProt P40261 (P40261 whole entry, looked up): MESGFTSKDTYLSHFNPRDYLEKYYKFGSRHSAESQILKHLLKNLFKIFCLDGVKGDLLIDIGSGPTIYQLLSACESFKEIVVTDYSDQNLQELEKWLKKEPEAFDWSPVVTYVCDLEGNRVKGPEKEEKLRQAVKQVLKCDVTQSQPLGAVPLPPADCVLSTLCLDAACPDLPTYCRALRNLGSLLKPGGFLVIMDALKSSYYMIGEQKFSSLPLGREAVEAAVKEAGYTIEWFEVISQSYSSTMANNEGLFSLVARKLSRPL
row,SMILES,IC50
1,Cc1c(OCc2cccc(-c3ccc(C(=O)O)cc3)c2)cc2c(c1C)C(=O)C(C1CCCC1)C2 (centres undefined),"27.1 µM [falling, partial curve]"
2,Cc1ccc(C)c(-c2cc(C(F)(F)F)nn2-c2ccc(S(N)(=O)=O)cc2)c1,"21.5 µM [falling, partial curve]"
3,CCc1c(-c2ccccc2)c(-c2ccccc2)nn1-c1ccccc1-c1cccc(OCC(=O)O)c1,"21.5 µM [falling, partial curve]"
4,COc1ccc(C(=O)N(CCC(C)C)Cc2nc(C)c(C)n2Cc2ccccc2C)c(OC)c1,"15.2 µM [falling, partial curve]"
5,N#Cc1c(O)c2c(-c3ccc(-c4ccccc4O)cc3)csc2[nH]c1=O,"24.1 µM [falling, single point]"
6,CC1CC(=O)C2=C(O1)OC1(C)CCC3C(C)(C)C4OC4C(=O)C3(C)C1C2 (centres undefined),"0.133 µM [falling, full curve]"
7,NC(N)=NC(=O)c1cnn(-c2cccc3ncccc23)c1C1CC1,"19.2 µM [falling, partial curve]"
8,CC(C)Cn1c(=O)c2ccccc2n2c(=O)n(CC(=O)c3cccc(Cl)c3)nc12,"10.8 µM [falling, full curve]"
9,O=C(O)CCc1ccc(NCc2cccc3c2CCCN3CCOc2ccccc2)cc1F,"27.1 µM [falling, single point]"
10,CC(F)(F)CN1CCOc2c(nn(-c3ccccc3Cl)c2-c2ccc(Cl)cc2)C1=O,"24.1 µM [falling, partial curve]"
11,CC(C)CCn1c(=O)c2ccccc2n2c(CCC(=O)N3CCN(c4ccc(F)cc4)CC3)nnc12,"19.2 µM [falling, partial curve]"
12,Cc1cccc(N2CCN(C(=O)CCc3nnc4n(CC(C)C)c(=O)c5ccccc5n34)CC2)c1C,"10.8 µM [falling, partial curve]"
13,CC1(C(=O)NC2CCCCC2)Cn2c(c(-n3cccc3)c3ccccc32)C(=O)N1Cc1ccccn1 (centres undefined),"15.2 µM [falling, partial curve]"
14,COc1ncccc1-c1cc2c(ccn2CC2CCN([S+](C)(=O)[O-])CC2)c(N2CCOCC2)n1,"6.07 µM [falling, partial curve, poor fit]"
